The source of these data is the GPR68 mutational scans of Howard et al. (2025).

Scores whose standard error is large were omitted. Not listed are two conditions whose scores span a narrow range. Read del as a deletion of the residues named and ins as an insertion between two positions. For some assays here: The data file names ogerin without a concentration.

The chains are these.
B1: GPR68, Q15743 (parent)
chain: MGNITADNSSMSCTIDHTIHQTLAPVVYVTVLVVGFPANCLSLYFGYLQIKARNELGVYLCNLTVADLFYICSLPFWLQYVLQHDNWSHGDLSCQVCGILLYENIYISVGFLCCISVDRYLAVAHPFRFHQFRTLKAAVGVSVVIWAKELLTSIYFLMHEEVIEDENQHRVCFEHYPIQAWQRAINYYRFLVGFLFPICLLLASYQGILRAVRRSHGTQKSRKDQIQRLVLSTVVIFLACFLPYHVLLLVRSVWEASCDFAKGVFNAYHFSLLLTSFNCVADPVLYCFVSETTHRDLARLRGACLAFLTCSRTGRAREAYPLGAPEASGKSGAQGEEPELLTKLHPAFQTPNSPGSGGFPTGRLA

In data set [1] the parent is B1. The data set can be described thus: cAMP reporter score (Enrich2 score, wild type = 0); higher = more signal; HEK293T, FACS bins.
Data set [2] covers variants of B1. Nature of the data set: surface expression score (Enrich2 score, wild type = 0); higher = more signal; HEK293T, FACS bins.

As to N167G, the cAMP reporter score in data set [1] (pH 5.5) was -0.476; in data set [1] (pH 6) it was -1.67; in data set [1] (pH 6, modulator: ogerin) it was -1.19; in data set [1] (pH 6.5, modulator: ogerin), -1.58. Besides, the surface expression score in data set [2] was -0.039.

On to N167A, for which the cAMP reporter score in data set [1] (pH 5.5) is 0.122; in data set [1] (pH 6) it was -0.569; in data set [1] (pH 6, modulator: ogerin) it was -0.485; in data set [1] (pH 6.5, modulator: ogerin), -0.695. Further, the surface expression score in data set [2] stood at 0.581.

For the variant N167F, the cAMP reporter score in data set [1] (pH 5.5) is -0.106; in data set [1] (pH 6) it was -0.661; in data set [1] (pH 6, modulator: ogerin), -0.669; in data set [1] (pH 6.5, modulator: ogerin), -0.696. Besides, the surface expression score in data set [2] was 0.064.

Regarding D165_E166insG, the cAMP reporter score was -0.422 in data set [1] (pH 5.5); -0.244 in data set [1] (pH 6); -0.784 in data set [1] (pH 6, modulator: ogerin); -1.02 in data set [1] (pH 6.5, modulator: ogerin). The surface expression score in data set [2] stood at 1.02.

Consider N167_Q168del, for which the cAMP reporter score in data set [1] (pH 5.5) was -0.618; in data set [1] (pH 6) it was -1.52; in data set [1] (pH 6, modulator: ogerin) it was -1.55; in data set [1] (pH 6.5, modulator: ogerin) it was -1.08. Besides, the surface expression score in data set [2] was 1.05.

Turning to H169_R170insGSG, the cAMP reporter score in data set [1] (pH 5.5) was -0.933; in data set [1] (pH 6) it was -1.04; in data set [1] (pH 6, modulator: ogerin) it was -1.51; in data set [1] (pH 6.5, modulator: ogerin) it was -1.54. Further, the surface expression score in data set [2] was determined as 0.786.

As to E174_H175del, the cAMP reporter score in data set [1] (pH 5.5) was -1.39; in data set [1] (pH 6), -1.55; in data set [1] (pH 6, modulator: ogerin), -0.76; in data set [1] (pH 6.5, modulator: ogerin), -0.58. The surface expression score in data set [2] is 0.131.

For the variant Q168_R170del, the cAMP reporter score in data set [1] (pH 5.5) was -0.984; in data set [1] (pH 6), -0.931; in data set [1] (pH 6, modulator: ogerin), -1.59; in data set [1] (pH 6.5, modulator: ogerin), -1.48. Also, the surface expression score in data set [2] is -0.634.

Take F173_E174insG: the cAMP reporter score in data set [1] (pH 5.5) is -1.32; in data set [1] (pH 6) it was -1.53; in data set [1] (pH 6, modulator: ogerin), -1.72; in data set [1] (pH 6.5, modulator: ogerin), -1.79. Moreover, the surface expression score in data set [2] was -2.27.

Turning to C172I, the cAMP reporter score in data set [1] (pH 5.5) is -1.38; in data set [1] (pH 6) it was -0.662; in data set [1] (pH 6, modulator: ogerin), -1.81; in data set [1] (pH 6.5, modulator: ogerin) it was 0. Moreover, in data set [2], the surface expression score is -0.588.

Regarding C172R, the cAMP reporter score in data set [1] (pH 5.5) is -1.24; in data set [1] (pH 6), -1.16; in data set [1] (pH 6, modulator: ogerin) it was -1.46; in data set [1] (pH 6.5, modulator: ogerin) it was -1.52. Further, in data set [2], the surface expression score is -2.46.

Take C172D: the cAMP reporter score was -2.25 in data set [1] (pH 5.5); -1.5 in data set [1] (pH 6); -2.46 in data set [1] (pH 6, modulator: ogerin); -1.45 in data set [1] (pH 6.5, modulator: ogerin). The surface expression score in data set [2] was -1.3.

With C172L, the cAMP reporter score was -1.49 in data set [1] (pH 5.5); -1.1 in data set [1] (pH 6); -1.53 in data set [1] (pH 6, modulator: ogerin); -1.2 in data set [1] (pH 6.5, modulator: ogerin). In addition, the surface expression score in data set [2] is -1.03.

As to C172F, the cAMP reporter score in data set [1] (pH 5.5) was -1.64; in data set [1] (pH 6) it was -1.04; in data set [1] (pH 6, modulator: ogerin), -1.58; in data set [1] (pH 6.5, modulator: ogerin) it was -0.925. The surface expression score in data set [2] is -0.932.

In the case of C172E, the cAMP reporter score is -1.04 in data set [1] (pH 5.5); -0.586 in data set [1] (pH 6); -1.54 in data set [1] (pH 6, modulator: ogerin).

As to C172V, the cAMP reporter score was -0.925 in data set [1] (pH 5.5) and -0.817 in data set [1] (pH 6.5, modulator: ogerin). The surface expression score in data set [2] is -0.377.

Regarding C172M, the cAMP reporter score in data set [1] (pH 5.5) was -1.78; in data set [1] (pH 6), -1.59; in data set [1] (pH 6, modulator: ogerin), -2; in data set [1] (pH 6.5, modulator: ogerin), -1.55. Besides, the surface expression score in data set [2] was -1.24.

Consider C172Q, for which the cAMP reporter score was -1.84 in data set [1] (pH 5.5); -1.24 in data set [1] (pH 6); -1.95 in data set [1] (pH 6, modulator: ogerin); -1.36 in data set [1] (pH 6.5, modulator: ogerin). In addition, the surface expression score in data set [2] is -0.92.

As to C172K, the cAMP reporter score is -1.4 in data set [1] (pH 5.5); -1.06 in data set [1] (pH 6); -2.4 in data set [1] (pH 6, modulator: ogerin); -1.4 in data set [1] (pH 6.5, modulator: ogerin). In data set [2], the surface expression score was -1.74.

Turning to C172T, the cAMP reporter score in data set [1] (pH 5.5) was -1.47; in data set [1] (pH 6), -1.46; in data set [1] (pH 6, modulator: ogerin), -1.48; in data set [1] (pH 6.5, modulator: ogerin), -1.63. Also, the surface expression score in data set [2] is -1.6.

For the variant C172W, the cAMP reporter score in data set [1] (pH 5.5) was -2.29; in data set [1] (pH 6) it was -0.441; in data set [1] (pH 6, modulator: ogerin), -1.5; in data set [1] (pH 6.5, modulator: ogerin) it was -0.545.

For the variant C172Y, the cAMP reporter score in data set [1] (pH 5.5) was -1.46; in data set [1] (pH 6), -0.484; in data set [1] (pH 6, modulator: ogerin), -0.739; in data set [1] (pH 6.5, modulator: ogerin), -0.745. In data set [2], the surface expression score came out at 0.33.

C172H: the cAMP reporter score is -1.43 in data set [1] (pH 5.5); -1.82 in data set [1] (pH 6); -1.22 in data set [1] (pH 6, modulator: ogerin); -1.24 in data set [1] (pH 6.5, modulator: ogerin). In addition, in data set [2], the surface expression score is -1.06.

Consider C172S, for which the cAMP reporter score in data set [1] (pH 5.5) is -0.469; in data set [1] (pH 6, modulator: ogerin), 0.14; in data set [1] (pH 6.5, modulator: ogerin), -0.512. Further, the surface expression score in data set [2] is -0.186.

Consider C172A, for which the cAMP reporter score in data set [1] (pH 5.5) is -1.68; in data set [1] (pH 6.5, modulator: ogerin) it was -0.974. Also, the surface expression score in data set [2] is -0.911.

Take C172P: the cAMP reporter score in data set [1] (pH 5.5) was -2; in data set [1] (pH 6) it was -1.07; in data set [1] (pH 6, modulator: ogerin), -1.29; in data set [1] (pH 6.5, modulator: ogerin) it was -1.52. In addition, in data set [2], the surface expression score was -0.789.

For E174_H175insGS, the cAMP reporter score is -1.57 in data set [1] (pH 5.5); -1.77 in data set [1] (pH 6); -1.51 in data set [1] (pH 6, modulator: ogerin); -1.41 in data set [1] (pH 6.5, modulator: ogerin). Also, the surface expression score in data set [2] is -0.141.

In the case of Q168_H169insG, the cAMP reporter score in data set [1] (pH 5.5) was -1.04; in data set [1] (pH 6), -1.12; in data set [1] (pH 6.5, modulator: ogerin) it was -1.64. Further, the surface expression score in data set [2] came to 0.32.

As for E166_N167insGSG, the cAMP reporter score was -1.16 in data set [1] (pH 5.5); 0.074 in data set [1] (pH 6); -1.06 in data set [1] (pH 6, modulator: ogerin); -1.67 in data set [1] (pH 6.5, modulator: ogerin). Further, in data set [2], the surface expression score worked out at 0.226.

With E174_Y176del, the cAMP reporter score in data set [1] (pH 5.5) is -0.471; in data set [1] (pH 6) it was -0.637; in data set [1] (pH 6, modulator: ogerin) it was -1.57; in data set [1] (pH 6.5, modulator: ogerin) it was -0.682. Besides, in data set [2], the surface expression score was -1.68.

Take F173_E174insGS: the cAMP reporter score in data set [1] (pH 5.5) is -0.219; in data set [1] (pH 6) it was -0.702; in data set [1] (pH 6, modulator: ogerin) it was -1.87; in data set [1] (pH 6.5, modulator: ogerin) it was -1.2. Moreover, the surface expression score in data set [2] is -0.245.
